Measured values taken from the RNAGym collection of RNA variant scans (doi:10.7554/elife.90254).
Read counts are not given, so values of variants with three or more changes are uncertain.

B1: LINE1-mini (parent)
chain: GGCAGAGCUCAACACAGCGUGGCAAAGUGGCUGUGGCUAGACUGCC

Variants of: B1
Assay: self-cleavage, relative activity (ratio to wild type); higher = more cleavage; in vitro, sequencing; the parent is a self-cleaving ribozyme

Variant	self-cleavage
GGCCGAGCUCAACACAUCGUGGCGAAGUGGCUGUGGCUAGACUGCC [A4C G17U A24G]	0.03
GGCCGAACUCAACACAGCGUGGCAAAGUGGCUGUGGAUAGACUGCU [A4C G7A C37A C46U]	0.77
GGCCGAACUCAACACCGCGUGGCAAAUUGGCUGUGGCUUGACUGCC [A4C G7A A16C G27U A39U]	1.06
GGCCUAACUCAACAAAGCGUGCCAAAGUGGCUGUGGCUAGACUGCC [A4C G5U G7A C15A G22C]	0.07
GGCCGAGCUCAACACAGCCUGGUAAAGUGGCUGUGGCUAGAAUGCC [A4C G19C C23U C42A]	0.02
GGCCGAGCUCAACACACCGUCGCAAAGUGGCUGUGGCUAGACUGCC [A4C G17C G21C]	0.08
GGCCGACCUGAACACAGCGUGGCAAAGAGGCUGUGGCUAGACUGCC [A4C G7C C10G U28A]	0.01
GGCCGAGCUCAACACAUCGUGCCAAAGUGGCUGUGGCUAGACUGCC [A4C G17U G22C]	0.05
GGCCGAGCUCAACACAUAGGGGCAAAGUGGCUGUGGCUAGACUGCC [A4C G17U C18A U20G]	0.01
GGCCUAGCUCAAGACAGCGUGGCUAAGAGUCUGGGGCUAGACUGCC [A4C G5U C13G A24U U28A G30U U34G]	0.01
GGCCCAACUCAACACAGCAUUGCAAUGUGGGUGUGGCUAGACUGCC [A4C G5C G7A G19A G21U A26U C31G]	0.02
GGCCAAGCUACGCACAGCGUUGCAAAGUGGCUGUGGCUAGUCUGCC [A4C G5A C10A A11C A12G G21U A41U]	0.02
GGCCGACCUCAAAACAGAGUGGCAAAGCGGCUGUGCCUAGACUGCC [A4C G7C C13A C18A U28C G36C]	0.37
GGCCGAGCUCAACACACCGUGGCAAAGUGGCUGUGGAUAGACUGCC [A4C G17C C37A]	0.11
GGCCGAGCUCAACACAGCGUGGAAAAGUGGCUUUGGCUAGUCUGCC [A4C C23A G33U A41U]	0.07
GGCCUAGCUCAGCACAGCGUGGCAAAGUGGCUGUGGCUAGACUGCA [A4C G5U A12G C46A]	0.01
GGCCGAGCUCAACACAGCUUGGCAAAGUGGCUGUGGGUAGACUGCU [A4C G19U C37G C46U]	0.02
GGCCUUGCUCAACACAGCGUGGCAAAGUGCCUGUGGCUAGACUGCU [A4C G5U A6U G30C C46U]	0.05
GGCCGAGCUCAACACAUCGUGGCAAAGUGGCUGUGGCUAGACUGAC [A4C G17U C45A]	0.02

Variant	self-cleavage
GGCCUAGCUCAACACAGCGUGGCACAGUGGCUGUGGCUAGACUGUC [A4C G5U A25C C45U]	0.06
GGCCGAGCUCAACACAUUGUGGCAAAGUGGCUGUGGCUAGUCUGCC [A4C G17U C18U A41U]	0.06
GGCCCAGCUCAACACAGCGGGGCAAAGAGGCUGUGGCUAGACUGCC [A4C G5C U20G U28A]	0.01
GGCCGAGCUCAACACAGGGUGGCAAGGUGGCUGCGGCUAGACUGCC [A4C C18G A26G U34C]	0.04
GGCCGAGCUCAACACAGCGUGGGAUAGUGGCUGUGGCUAGACUGCC [A4C C23G A25U]	0.01
GGCCGAUCCCAACACAGCGUGGCAAAGUGGCUGUUGCUAGACUGGC [A4C G7U U9C G35U C45G]	0.02
GGCCGACCUCAACACAGCGAGGCAAAGUGGCUUUGGCUACACUGCC [A4C G7C U20A G33U G40C]	0.04
GGCCGAGCUCAACACAUCGUGGCAAAGUGCCUGUGGCUAGACUGCC [A4C G17U G30C]	0.05
GGCCGAACUCAACUCAGCGUGGCAAAGUGGCUGUGGCUAGUCUGCC [A4C G7A A14U A41U]	0.56
GGCCCAGCUCAUCAAAGAGUGGCAAAGCCGGUGUGGCUAGAUUGCC [A4C G5C A12U C15A C18A U28C G29C C31G C42U]	0.03
GGCCGAGCUCAACACAUCGUGGCAAAGUGGCUGUAGCUAGACUGCC [A4C G17U G35A]	0.06
GGCCGAGCUCAACACAUCGUGACAAAGUGGCUGUGGCUAGAGUGCC [A4C G17U G22A C42G]	0.02
GGCCGACCUUAACACAGUGUCGCAAAGUGACUGUGGCUACACUGCC [A4C G7C C10U C18U G21C G30A G40C]	0.05
GGCCGAGCUCAACACAGCGUCGCAAAGUGGAUGUGGCUAGACUGCC [A4C G21C C31A]	0.33
GGCCGAGCUCAACACACCGUGGCAAAGUGGCUGUGGCCAGAGUGCC [A4C G17C U38C C42G]	0.02
GGCCUAGCUAAACACAGCGUGGCAAAGUGGCUGUGGCUAGACUGCC [A4C G5U C10A]	0.03
GGCCUAGCGCAACACAGCGUGGCUAUGUGGCUGUGGCUAGAGUGCC [A4C G5U U9G A24U A26U C42G]	0.03
GGCCAAGCUCAACACAGCGUGGCAAAAUGCCUGUGGCUAGACUGCC [A4C G5A G27A G30C]	0.43
GGCCGAGCUCAACACAGUGUGGCAAAGUGGCUGUGGCAAGACUGCC [A4C C18U U38A]	0.42

Variant	self-cleavage
GGCCUCCAUCAACACAGCGUGGCAAAGUGGGUGUGGCUAGACUGCC [A4C G5U A6C G7C C8A C31G]	0.43
GGCCCAGCUCAACACAGCGUGACAAAGUGGCUGUGGCUAGACUGCC [A4C G5C G22A]	0.06
GGCCGAGCUCAACACAUCGUGGCACACUGGCAGUGGCUGGACUGCC [A4C G17U A25C G27C U32A A39G]	0.02
GGCCAAGCUCAACACAGCGUGGCAUAGUGGCUGUGACUAGACUGCC [A4C G5A A25U G36A]	0.22
GGCCGAGCUCAACACAACGUGGCAAAGUGCCUGUGGCUAGACUGCC [A4C G17A G30C]	0.11
GGCCUAGCUCAACAAAGCGUGGCAAAGGGGCUGUGGCUAGACUGCU [A4C G5U C15A U28G C46U]	0.03
GGCCGAGCUCAACACAGGGUGGCAAAGUGGCUGUGGCUAGAAUGCC [A4C C18G C42A]	0.98
GGCCGAACUAAACACACCGAGGUAAAGUGGCUGUGGCUAGAAUGCG [A4C G7A C10A G17C U20A C23U C42A C46G]	0.01
GGCCAAGCUCAACACAGCGUGGUAAAGUGGCUGUGGCUAGACUGCC [A4C G5A C23U]	0.21
GGCCGAGCUCAACACAGCUUAGCAAAGUUGCUGUGGCUAGACUGCU [A4C G19U G21A G29U C46U]	0.28
GGCCGACCUCAACACAGCGUGGCAAAGUGGCUGCGGCUAGACUGCC [A4C G7C U34C]	0.07
GGCCGACCUCAACACAGCGUGGCAAAGUGGCUGAGGCUAGACUGCC [A4C G7C U34A]	0.02
GGCCGAGCUCAACACAGCGUGGUAAAGUGGCUGCGGCUAGACUGCC [A4C C23U U34C]	0.04
GGCCGAGCUCAACACAGGGUGGCACUGUGGCUGUGGCUAGGCUGCC [A4C C18G A25C A26U A41G]	0.01
GGCCGAUCUCAACACAGAGUGUAAAAGAGGCUGUGGCUAGACUGCC [A4C G7U C18A G22U C23A U28A]	0.04
GGCCGAGCUCAACACACCGUGGCAAAGUGGCUGUGACUAUACUGCC [A4C G17C G36A G40U]	0.08
GGCCAAGCUCAACACAGCGUGGCAAAGUGGCUGUGGCUAGACAGUC [A4C G5A U43A C45U]	0.01
GGCCGAACGUAACACAGCGUGGCAAAGCGGCUGUGGCUAGACUGCC [A4C G7A U9G C10U U28C]	0.05
